Data reported in a compilation of properties of binary mixtures (doi:10.1016/j.molliq.2020.112856).
Some of these densities may be calculated back from excess volumes.

Assay: xn = mol fraction of the nth substance listed
Settings: 100 kPa

CC[n+]1ccn(CCOC)c1.N#C[S-] + CCO
mass density [kg/m3]
Settings	x1 = 0.1	x1 = 0.1999	x1 = 0.3002	x1 = 0.3995	x1 = 0.5001	x1 = 0.6	x1 = 0.7	x1 = 0.797	x1 = 0.8964	x1 = 1
288.15 K	894.2	958.9	1004.7	1038.6	1061.1	1085	1102.2	1116.8	1128.8	1139.5
293.15 K	890.3	955.2	1001.1	1035.1	1057.6	1081.6	1098.9	–	1125.5	–
298.15 K	–	–	997.5	1031.6	–	1078.2	1095.5	1110.2	–	1133
303.15 K	882.4	947.7	993.9	1028.1	1050.8	1074.9	1092.2	1107	1119	–
308.15 K	–	944	990.4	1024.7	1047.4	1071.5	1088.9	1103.7	1115.7	1126.5
313.15 K	874.5	940.3	986.8	1021.2	–	1068.2	–	1100.4	–	1123.3
318.15 K	870.5	936.5	983.2	1017.8	1040.6	1064.9	1082.3	1097.2	1109.3	1120.1

CCO + CC[n+]1ccn(CCOC)c1.N#C[S-]
x2 = 0
Settings	mass density [kg/m3]
288.15 K	793.9
293.15 K	789.7
298.15 K	785.4
303.15 K	781.1
308.15 K	776.7
313.15 K	772.3
318.15 K	767.9
